Experimental data as given in the supplement of paper PMC4604168 (melanoma cell lines).
The other results are listed elsewhere or left out. Repeats are few or missing, and single values can be far off.
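Further: cells treated in 1,536-well plates, then fixed and DAPI-stained, with nuclei counted from automated high-throughput microscope images.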

Each compound was assayed on MZ2-MEL (assay: cell count relative to DMSO control; melanoma cells; higher = more viable cells). Settings: library dose: standard library concentration; 72 h.
Work on `CS(=O)(=O)c1ccc(C(=O)Nc2ccc(Cl)c(-c3ccccn3)c2)c(Cl)c1` [vismodegib] + CCCCCCCCCCCC1=C(O)C(=O)C=C(O)C1=O [Embelin] (first compound 5 µM, partner dose 6 µM) yielded a cell count of 99.7%.
`CCCS(=O)(=O)Nc1ccc(F)c(C(=O)c2c[nH]c3ncc(Cl)cc23)c1F` + COc1ccc(COc2ccc(Cc3cnc(N)nc3N)cc2OC)cc1 [GW2580] (first compound 0.4 µM, partner dose 5 µM) showed a cell count of 85.7%.
With `CN(c1ncccc1CNc1nc(Nc2ccc3c(c2)CC(=O)N3)ncc1C(F)(F)F)S(C)(=O)=O` + CN(NC(=O)CC(=O)NN(C)C(=S)c1ccccc1)C(=S)c1ccccc1 [STA4783] (first compound 0.4 µM, partner dose 0.03 µM) the cell count was 94.4%.
`C=C(c1ccc(C(=O)O)cc1)c1cc2c(cc1C)C(C)(C)CCC2(C)C` [Bexarotene] + Cc1cc(N2CCOCC2)cc2[nH]c(-c3c(NC[C@@H](O)c4cccc(Cl)c4)cc[nH]c3=O)nc12 [BMS536924] (first compound 10 µM, partner dose 1 µM) was tested, and the cell count was 108%.
For `CN(c1ncccc1CNc1nc(Nc2ccc3c(c2)CC(=O)N3)ncc1C(F)(F)F)S(C)(=O)=O` + C#Cc1cccc(Nc2ncnc3cc(OCCOC)c(OCCOC)cc23)c1 [erlotinib] (first compound 0.4 µM, partner dose 4 µM), the cell count was 52.2%.
With `C=C(c1ccc(C(=O)O)cc1)c1cc2c(cc1C)C(C)(C)CCC2(C)C` [Bexarotene] + CN(NC(=O)CC(=O)NN(C)C(=S)c1ccccc1)C(=S)c1ccccc1 [STA4783] (first compound 10 µM, partner dose 0.03 µM) the cell count was 108%.
`NC1(c2ccc(-c3nc4ccn5c(=O)[nH]nc5c4cc3-c3ccccc3)cc2)CCC1` + O=C(O)C(=O)Nc1sc2c(c1C(=O)O)CCNC2 [TCS401] (first compound 2 µM, partner dose 8.33333 µM) gave a cell count of 98.2%.
Work on `NC1(c2ccc(-c3nc4ccn5c(=O)[nH]nc5c4cc3-c3ccccc3)cc2)CCC1` + O=C(Nc1cccc(Cl)c1)Nc1ncc(CCNc2ncnc3ccsc23)s1 [SNS314] (first compound 2 µM, partner dose 0.004 µM) yielded a cell count of 91.8%.
`CCCS(=O)(=O)Nc1ccc(F)c(C(=O)c2c[nH]c3ncc(Cl)cc23)c1F` + CC(=O)c1c(C)c2cnc(Nc3ccc(N4CCNCC4)cn3)nc2n(C2CCCC2)c1=O [palbociclib] (first compound 0.4 µM, partner dose 0.2 µM) showed a cell count of 44.6%.
`CS(=O)(=O)c1ccc(C(=O)Nc2ccc(Cl)c(-c3ccccn3)c2)c(Cl)c1` [vismodegib] + Cc1cc(N2CCOCC2)cc2[nH]c(-c3c(NC[C@@H](O)c4cccc(Cl)c4)cc[nH]c3=O)nc12 [BMS536924] (first compound 5 µM, partner dose 1 µM) showed a cell count of 129%.
Work on `CCCS(=O)(=O)Nc1ccc(F)c(C(=O)c2c[nH]c3ncc(Cl)cc23)c1F` + CCCCCCCCCCCC1=C(O)C(=O)C=C(O)C1=O [Embelin] (first compound 0.4 µM, partner dose 6 µM) yielded a cell count of 73.8%.
`NC1(c2ccc(-c3nc4ccn5c(=O)[nH]nc5c4cc3-c3ccccc3)cc2)CCC1` + CC(C)(C)c1cnc(CSc2cnc(NC(=O)C3CCNCC3)s2)o1 [SNS-032] (first compound 2 µM, partner dose 0.05 µM) showed a cell count of 99.9%.
`C=C(c1ccc(C(=O)O)cc1)c1cc2c(cc1C)C(C)(C)CCC2(C)C` [Bexarotene] + CC(=O)c1c(C)c2cnc(Nc3ccc(N4CCNCC4)cn3)nc2n(C2CCCC2)c1=O [palbociclib] (first compound 10 µM, partner dose 0.2 µM) was tested, and the cell count was 70.9%.
Work on `CN(c1ncccc1CNc1nc(Nc2ccc3c(c2)CC(=O)N3)ncc1C(F)(F)F)S(C)(=O)=O` + O=C(Nc1ccccc1)c1cc([N+](=O)[O-])ccc1Cl [GW9662] (first compound 0.4 µM, partner dose 10 µM) yielded a cell count of 92.2%.
Compound `CCCS(=O)(=O)Nc1ccc(F)c(C(=O)c2c[nH]c3ncc(Cl)cc23)c1F` + Cc1nc(Nc2ncc(C(=O)Nc3c(C)cccc3Cl)s2)cc(N2CCN(CCO)CC2)n1 [dasatanib] (first compound 0.4 µM, partner dose 0.02 µM) has a cell count of 39.3%.
